The other results are listed elsewhere or left out. Binding of human transcription factors and regulators to the viral nucleoprotein by AlphaScreen, crude cell-free proteins, amounts not normalised, one pass. Fold of the Venus control; higher = more signal. No active / inactive call. Single-pass screen; sequences are the whole Swiss-Prot entries looked up by name.
B1: TNFSF4, P23510 (protein)
chain: MERVQPLEENVGNAARPRFERNKLLLVASVIQGLGLLLCFTYICLHFSALQVSHRYPRIQSIKVQFTEYKKEKGFILTSQKEDEIMKVQNNSVIINCDGFYLISLKGYFSQEVNISLHYQKDEEPLFQLKKVRSVNSLMVASLTYKDKVYLNVTTDNTSLDDFHVNGGELILIHQNPGEFCVL
B2: SPIC, Q8N5J4 (protein)
chain: MTCVEQDKLGQAFEDAFEVLRQHSTGDLQYSPDYRNYLALINHRPHVKGNSSCYGVLPTEEPVYNWRTVINSAADFYFEGNIHQSLQNITENQLVQPTLLQQKGGKGRKKLRLFEYLHESLYNPEMASCIQWVDKTKGIFQFVSKNKEKLAELWGKRKGNRKTMTYQKMARALRNYGRSGEITKIRRKLTYQFSEAILQRLSPSYFLGKEIFYSQCVQPDQEYLSLNNWNANYNYTYANYHELNHHDC
B3: PPARD, Q03181 (protein)
chain: MEQPQEEAPEVREEEEKEEVAEAEGAPELNGGPQHALPSSSYTDLSRSSSPPSLLDQLQMGCDGASCGSLNMECRVCGDKASGFHYGVHACEGCKGFFRRTIRMKLEYEKCERSCKIQKKNRNKCQYCRFQKCLALGMSHNAIRFGRMPEAEKRKLVAGLTANEGSQYNPQVADLKAFSKHIYNAYLKNFNMTKKKARSILTGKASHTAPFVIHDIETLWQAEKGLVWKQLVNGLPPYKEISVHVFYRCQCTTVETVRELTEFAKSIPSFSSLFLNDQVTLLKYGVHEAIFAMLASIVNKDGLLVANGSGFVTREFLRSLRKPFSDIIEPKFEFAVKFNALELDDSDLALFIAAIILCGDRPGLMNVPRVEAIQDTILRALEFHLQANHPDAQYLFPKLLQKMADLRQLVTEHAQMMQRIKKTETETSLHPLLQEIYKDMY
B4: FOXA3, P55318 (protein)
chain: MLGSVKMEAHDLAEWSYYPEAGEVYSPVTPVPTMAPLNSYMTLNPLSSPYPPGGLPASPLPSGPLAPPAPAAPLGPTFPGLGVSGGSSSSGYGAPGPGLVHGKEMPKGYRRPLAHAKPPYSYISLITMAIQQAPGKMLTLSEIYQWIMDLFPYYRENQQRWQNSIRHSLSFNDCFVKVARSPDKPGKGSYWALHPSSGNMFENGCYLRRQKRFKLEEKVKKGGSGAATTTRNGTGSAASTTTPAATVTSPPQPPPPAPEPEAQGGEDVGALDCGSPASSTPYFTGLELPGELKLDAPYNFNHPFSINNLMSEQTPAPPKLDVGFGGYGAEGGEPGVYYQGLYSRSLLNAS
B5: THRA, P10827 (protein)
chain: MEQKPSKVECGSDPEENSARSPDGKRKRKNGQCSLKTSMSGYIPSYLDKDEQCVVCGDKATGYHYRCITCEGCKGFFRRTIQKNLHPTYSCKYDSCCVIDKITRNQCQLCRFKKCIAVGMAMDLVLDDSKRVAKRKLIEQNRERRRKEEMIRSLQQRPEPTPEEWDLIHIATEAHRSTNAQGSHWKQRRKFLPDDIGQSPIVSMPDGDKVDLEAFSEFTKIITPAITRVVDFAKKLPMFSELPCEDQIILLKGCCMEIMSLRAAVRYDPESDTLTLSGEMAVKREQLKNGGLGVVSDAIFELGKSLSAFNLDDTEVALLQAVLLMSTDRSGLLCVDKIEKSQEAYLLAFEHYVNHRKHNIPHFWPKLLMKEREVQSSILYKGAAAEGRPGGSLGVHPEGQQLLGMHVVQGPQVRQLEQQLGEAGSLQGPVLQHQSPKSPQQRLLELLHRSGILHARAVCGEDDSSEADSPSSSEEEPEVCEDLAGNAASP
B6: FOSL1, P15407 (protein)
chain: MFRDFGEPGPSSGNGGGYGGPAQPPAAAQAAQQKFHLVPSINTMSGSQELQWMVQPHFLGPSSYPRPLTYPQYSPPQPRPGVIRALGPPPGVRRRPCEQISPEEEERRRVRRERNKLAAAKCRNRRKELTDFLQAETDKLEDEKSGLQREIEELQKQKERLELVLEAHRPICKIPEGAKEGDTGSTSGTSSPPAPCRPVPCISLSPGPVLEPEALHTPTLMTTPSLTPFTPSLVFTYPSTPEPCASAHRKSSSSSGDPSSDPLGSPTLLAL
B7: ZNF213, O14771 (protein)
chain: MAAPLEAQDQAPGEGEGLLIVKVEDSSWEQESAQHEDGRDSEACRQRFRQFCYGDVHGPHEAFSQLWELCCRWLRPELRTKEQILELLVLEQFLTVLPGEIQGWVREQHPGSGEEAVALVEDLQKQPVKAWRQDVPSEEAEPEAAGRGSQATGPPPTVGARRRPSVPQEQHSHSAQPPALLKEGRPGETTDTCFVSGVHGPVALGDIPFYFSREEWGTLDPAQRDLFWDIKRENSRNTTLGFGLKGQSEKSLLQEMVPVVPGQTGSDVTVSWSPEEAEAWESENRPRAALGPVVGARRGRPPTRRRQFRDLAAEKPHSCGQCGKRFRWGSDLARHQRTHTGEKPHKCPECDKSFRSSSDLVRHQGVHTGEKPFSCSECGKSFSRSAYLADHQRIHTGEKPFGCSDCGKSFSLRSYLLDHRRVHTGERPFGCGECDKSFKQRAHLIAHQSLHAKMAQPVG
B8: ETS2, P15036 (protein)
chain: MNDFGIKNMDQVAPVANSYRGTLKRQPAFDTFDGSLFAVFPSLNEEQTLQEVPTGLDSISHDSANCELPLLTPCSKAVMSQALKATFSGFKKEQRRLGIPKNPWLWSEQQVCQWLLWATNEFSLVNVNLQRFGMNGQMLCNLGKERFLELAPDFVGDILWEHLEQMIKENQEKTEDQYEENSHLTSVPHWINSNTLGFGTEQAPYGMQTQNYPKGGLLDSMCPASTPSVLSSEQEFQMFPKSRLSSVSVTYCSVSQDFPGSNLNLLTNNSGTPKDHDSPENGADSFESSDSLLQSWNSQSSLLDVQRVPSFESFEDDCSQSLCLNKPTMSFKDYIQERSDPVEQGKPVIPAAVLAGFTGSGPIQLWQFLLELLSDKSCQSFISWTGDGWEFKLADPDEVARRWGKRKNKPKMNYEKLSRGLRYYYDKNIIHKTSGKRYVYRFVCDLQNLLGFTPEELHAILGVQPDTED
B9: HNF4G, Q14541 (protein)
chain: MNTTDNGVNCLCAICGDRATGKHYGASSCDGCKGFFRRSIRKSHVYSCRFSRQCVVDKDKRNQCRYCRLRKCFRAGMKKEAVQNERDRISTRRSTFDGSNIPSINTLAQAEVRSRQISVSSPGSSTDINVKKIASIGDVCESMKQQLLVLVEWAKYIPAFCELPLDDQVALLRAHAGEHLLLGATKRSMMYKDILLLGNNYVIHRNSCEVEISRVANRVLDELVRPFQEIQIDDNEYACLKAIVFFDPDAKGLSDPVKIKNMRFQVQIGLEDYINDRQYDSRGRFGELLLLLPTLQSITWQMIEQIQFVKLFGMVKIDNLLQEMLLGGASNDGSHLHHPMHPHLSQDPLTGQTILLGPMSTLVHADQISTPETPLPSPPQGSGQEQYKIAANQASVISHQHLSKQKQL
B10: ZHX2, Q9Y6X8 (protein)
chain: MASKRKSTTPCMVRTSQVVEQDVPEEVDRAKEKGIGTPQPDVAKDSWAAELENSSKENEVIEVKSMGESQSKKLQGGYECKYCPYSTQNLNEFTEHVDMQHPNVILNPLYVCAECNFTTKKYDSLSDHNSKFHPGEANFKLKLIKRNNQTVLEQSIETTNHVVSITTSGPGTGDSDSGISVSKTPIMKPGKPKADAKKVPKKPEEITPENHVEGTARLVTDTAEILSRLGGVELLQDTLGHVMPSVQLPPNINLVPKVPVPLNTTKYNSALDTNATMINSFNKFPYPTQAELSWLTAASKHPEEHIRIWFATQRLKHGISWSPEEVEEARKKMFNGTIQSVPPTITVLPAQLAPTKVTQPILQTALPCQILGQTSLVLTQVTSGSTTVSCSPITLAVAGVTNHGQKRPLVTPQAAPEPKRPHIAQVPEPPPKVANPPLTPASDRKKTKEQIAHLKASFLQSQFPDDAEVYRLIEVTGLARSEIKKWFSDHRYRCQRGIVHITSESLAKDQLAIAASRHGRTYHAYPDFAPQKFKEKTQGQVKILEDSFLKSSFPTQAELDRLRVETKLSRREIDSWFSERRKLRDSMEQAVLDSMGSGKKGQDVGAPNGALSRLDQLSGAQLTSSLPSPSPAIAKSQEQVHLLRSTFARTQWPTPQEYDQLAAKTGLVRTEIVRWFKENRCLLKTGTVKWMEQYQHQPMADDHGYDAVARKATKPMAESPKNGGDVVPQYYKDPKKLCEEDLEKLVTRVKVGSEPAKDCLPAKPSEATSDRSEGSSRDGQGSDENEESSVVDYVEVTVGEEDAISDRSDSWSQAAAEGVSELAESDSDCVPAEAGQA
B11: ZNF232, Q9UNY5 (protein)
chain: MEPPGPVRGPLQDSSWYEPSAELVQTRMAVSLTAAETLALQGTQGQEKMMMMGPKEEEQSCEYETRLPGNHSTSQEIFRQRFRHLRYQETPGPREALSQLRVLCCEWLRPEKHTKEQILEFLVLEQFLTILPEELQSWVRGHHPKSGEEAVTVLEDLEKGLEPEPQVPGPAHGPAQEEPWEKKESLGAAQEALSIQLQPKETQPFPKSEQVYLHFLSVVTEDGPEPKDKGSLPQPPITEVESQVFSEKLATDTSTFEATSEGTLELQQRNPKAERLRWSPAQEESFRQMVVIHKEIPTGKKDHECSECGKTFIYNSHLVVHQRVHSGEKPYKCSDCGKTFKQSSNLGQHQRIHTGEKPFECNECGKAFRWGAHLVQHQRIHSGEKPYECNECGKAFSQSSYLSQHRRIHSGEKPFICKECGKAYGWCSELIRHRRVHARKEPSH

The binders below were run against nucleoprotein N of Crimean-Congo hemorrhagic fever virus (assay: AlphaScreen luminescence signal relative to Venus negative control (fold); higher = stronger binding to CCHFV N).
Procedure: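 AlphaScreen binding of cell-free made, FLAG-GST-tagged human transcription factors and regulators (crude translation products) to biotinylated N protein; signal as fold of the FLAG-GST-Venus control. One pass.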

Row | Binder | AlphaScreen luminescence signal
1 | B1 | 2.6
2 | B2 | 2.84
3 | B3 | 1.81
4 | B4 | 2.28
5 | B5 | 3.12
6 | B6 | 1.81
7 | B7 | 3.02
8 | B8 | 3.07
9 | B9 | 3.35
10 | B10 | 2.09
11 | B11 | 1.26

Source: the supplement of paper PMC12423691
